Assay results: US20240182583A1, “COMBINATION OF ANTI-GALECTIN-9 ANTIBODIES AND CHEMOTHERAPEUTICS FOR USE IN CANCER THERAPY” (PURETECH LYT, INC., priority 2021, published 2024)

Key:
[1] = Nonclinical studies conducted to-date (toxicity); assay type: in vivo; details: doses ˜500-fold above those intended for human administration
[2] = Non-GLP single-dose range-finding intravenous infusion toxicity study in cynomolgus monkeys; assay type: in vivo
Text: The animals were placed in sling restraints during dosing.
Bone marrow smears were collected and preserved.
Formalin was infused into the lung via the trachea.
Paired organs were weighed together.

[3] = Once weekly intravenous toxicity and toxicokinetic study in rats; assay type: in vivo
Protocol: The objective of this study was to evaluate potential toxicity of G9.2-17, an IgG4 human monoclonal antibody directed against galectin-9 at different doses, when administered by intravenous infusion to Sprague Dawley Rats once weekly for 4 consecutive weeks followed by a 3-week post dose recovery period. In addition, the toxicokinetic characteristics of G9.2-17 were determined.
One hundred eighty-six animals (Sprague Dawley rats) were assigned to treatment groups randomly by body weight. Control Article/Vehicle, Formulation Buffer for Test Article, and test article, G9.2-17, were administered via a single IV injection in a tail vein at dose levels of 0, 100, and 300 mg/kg once on Days 1, 8, 15, 22, and 29. Test article was administered at dose levels of 100 and 300 mg/kg once on Day 1 to animals assigned to the SSD subgroup.
Clinical observations were performed once daily prior to room cleaning in the morning, beginning on the second day of acclimation. A mortality check was conducted twice daily to assess general animal health and wellness. Food consumption was estimated by weighing the supplied and remaining amount of food in containers once weekly. The average gram (g)/animal/day was calculated from the weekly food consumption. Body weights were taken prior to randomization, on Day −1, then once weekly throughout the study, and on the day of each necropsy. Functional Observation Battery (FOB) observations were recorded for SSB animals approximately 24 hours post dose administrations on Days 1, 35 and 49. Urine was collected overnight using metabolic cages. Samples were obtained on Days 36 and 50.
Animals were fasted overnight prior to each series of collections that included specimens for serum chemistry. In these instances, associated clinical pathology evaluations were from fasted animals. Blood was collected from a jugular vein of restrained, conscious animals or from the vena cava of anesthetized animals at termination.
Parameters assessed during the In-life examinations of the study included clinical observations, food consumption, body weights, functional observational battery. Blood samples were collected at selected time points for clinical pathology (hematology, coagulation, and serum chemistry) analyses. Urine samples were collected for urinalysis. Blood samples were also collected at selected time points for toxicokinetic (TK), immunogenicity (e.g., anti-drug antibody or ADA), and cytokine analyses. Animals were necropsied on Days 36 and 50. At each necropsy, gross observations and organ weights were recorded, and tissues were collected for microscopic examination.

M2 macrophages = experiment: Inhibition of polarization and repolarization of M2 macrophages (TGF-beta1, IL-10 secretion); assay type: cell-based, human
Text: Whole blood from three healthy human donors was used to isolate CD14+ monocytes. The monocytes were allowed to differentiate to macrophages in X-VIVO-15 media (Lonza) in a 10 cm tissue culture dish for 7 days. The differentiated macrophages were either used directly for assessing inhibition of polarization, or they were cryopreserved and used at a later time for repolarization assays. Prior to use in an assay, the M0 macrophages were phenotyped.
Two different polarization cocktails were used to evaluate macrophage polarization: one with a mixture of IL-4 and IL-13, and a second containing only gal-9. The effect of G9.2-17 on M2 polarization was tested via its direct addition to one of these cocktails, and incubation with macrophages for 48 hours. The effect of G9.2-17 on repolarization of M2 macrophages was tested via addition to the M2-polarized macrophages.
The state of polarization was identified by the measurement of secretion of either IL-10 (repolarization) or TGF-beta1 (inhibition of polarization and repolarization). These factors were quantified in cell culture supernatants using CytoMetric Bead Arrays following the manufacturer's protocol.

[4] = Non-GLP single-dose range-finding intravenous toxicity study in rats; assay type: in vivo, Sprague Dawley rats
[5] = Once weekly 5-week intravenous infusion toxicity and toxicokinetic study in cynomolgus monkeys
[6] = either sex, any dose level, any interval
[7] = once weekly for a total of 5 doses
[8] = all donors, vs untreated and IgG4 isotype control, both types of polarization cocktails
[9] = either sex, any dose level, any timepoint

B1: G9.2-17 (IgG4): fully human IgG4 monoclonal antibody (mAb) targeting galectin-9; heavy chain SEQ ID NO: 19, light chain SEQ ID NO: 15 (antibody)
heavy: EVQLVESGGGLVQPGGSLRLSCAASGFTVSSSSIHWVRQAPGKGLEWVAYISSSSGYTYYADSVKGRFTISADTSKNTAYLQMNSLRAEDTAVYYCARYWSYPSWWPYRGMDYWGQGTLVTVSSASTKGPSVFPLAPCSRSTSESTAALGCLVKDYFPEPVTVSWNSGALTSGVHTFPAVLQSSGLYSLSSVVTVPSSSLGTKTYTCNVDHKPSNTKVDKRV[sequence of human IgG4 Fc with S228P L445P (EU numbers) not given]
light: DIQMTQSPSSLSASVGDRVTITCRASQSVSSAVAWYQQKPGKAPKLLIYSASSLYSGVPSRFSGSRSGTDFTLTISSLQPEDFATYYCQQSSTDPITFGQGTKVEIKRTVAAPSVFIFPPSDEQLKSGTASVVCLLNNFYPREAKVQWKVDNALQSGNSQESVTEQDSKDSTYSLSSTLTLSKADYEKHKVYACEVTHQGLSSPVTKSFNRGEC
toxicities in nonclinical studies [1]: no significant toxicities | clinical or veterinary observations ([2]; cynomolgus monkey, in vivo): No test article-related clinical or veterinary observations | gross necropsy observations ([2]; cynomolgus monkey, in vivo): no findings that were considered to be test article related | organ weight alterations ([2]; cynomolgus monkey, in vivo): no organ weight alterations that were considered to be test article-related | effects on clinical chemistry endpoints [2, 6]: no G9.2-17 IgG4-related effects | effects on coagulation times or fibrinogen concentrations [2, 6]: no G9.2-17 IgG4-related effects | effects on cytokine endpoints [2, 6]: no G9.2-17 IgG4-related effects | effects on hematology endpoints [2, 6]: no G9.2-17 IgG4-related effects | mortality ([2]; scheduled necropsy Day 22): All animals survived | findings in clinical observations, body weights, food consumption, clinical pathology, immunophenotyping, galectin-9 expression on leukocyte subsets, soluble galectin-9 or anatomic pathology ([2]; single 30-minute IV infusion 30, 100, 200 mg/kg): No G9.2-17 IgG4-related findings | No-observed-Adverse-Effect-Level (NOAEL) ([2]; single IV infusion, highest dose level evaluated): 200 mg/kg | tolerability ([2]; single intravenous infusion of 30, 100, and 200 mg/kg): tolerated with no adverse findings | effects on body weight ([2]; treatment or recovery period): No test article-related effects | clinical observations ([3]; IV 100 and 300 mg/kg on Days 1, 8, 15, 22, 29): no G9.2-17-related clinical observations | changes in clinical observations, food consumption, body weights, FOB parameters, clinical pathology, cytokine, gross observations, or organ weights [3, 7]: no G9.2-17-related changes | tolerability [3, 7]: generally well tolerated | absolute or relative organ weights ([3]; rat, in vivo): no G9.2-17-related changes | clinical pathology parameters ([3]; rat, in vivo): no G9.2-17-related changes | food consumption, body weights or body weight gain ([3]; rat, in vivo): no G9.2-17-related changes | gross observations ([3]; rat, in vivo): no G9.2-17-related gross observations | histologic findings ([3]; rat, in vivo): no G9.2-17-related histologic findings | serum concentrations of IL-2, IL-4, IFN-γ, IL-5, IL-6, IL-10, and/or TNF-α, MCP-1 and MIP-1b ([3]; rat, in vivo): no G9.2-17-related changed | secreted IL-10 levels (M2 macrophages; [8]): reduction | secreted TGF-b1 levels (M2 macrophages; [8]): reduction | inhibition of IL-10 (M2 macrophages; concentration of 20 μg/ml): potently inhibit | inhibition of TGF-beta1 (M2 macrophages; concentration of 20 μg/ml): potently inhibit | TGF-beta1 secretion (M2 macrophages; polarization of fresh monocyte-derived macrophages, vs isotype matched control or untreated cells, all donors): decrease in TGF-beta1 secretion | TGF-β1 secretion (M2 macrophages; previously frozen macrophages, 20 ng/mL IL-4/IL-13 polarization cocktail): abolished the IL-4/IL-13-dependent increase of TGF-β1 secretion | findings in clinical observations, body weights, food consumption, clinical pathology or anatomic pathology ([4]; single IV 10, 30, 70 mg/kg): No G9.2-17 IgG4-related findings | mortality ([4]; single IV bolus 10, 30, 70 mg/kg, necropsies Days 8 and 22): All animals survived to the scheduled necropsies | tolerability ([4]; single intravenous administration of 10, 30, and 70 mg/kg): tolerated with no adverse findings | NOEL ([4]; single intravenous dose): 70 mg/kg | macroscopic findings, organ weight changes, microscopic findings ([4]; terminal and recovery necropsy animals): no test article-related macroscopic findings, organ weight changes, or microscopic findings | mortality ([5]; 100 and 300 mg/kg/dose once weekly x5, necropsy Day 36, recovery Day 50): All animals survived | effects on cytokines ([5]; any dose level or timepoint): No definitive G9.2-17-related effects | G9.2-17 in serum samples after dose administration ([5]; bioanalysis, LLOQ <0.04 ug/mL): quantifiable in all cynomolgus monkey samples from all G9.2-17-dosed animals | microscopic observations ([5]; cynomolgus monkey, in vivo): no definitive test article-related microscopic observations | Peripheral Blood Leukocyte Analysis (PBLA) endpoints [5, 9]: no G9.2-17-related effects | clinical chemistry parameters [5, 9]: no G9.2-17-related effects | coagulation parameters [5, 9]: no G9.2-17-related effects | hematology parameters [5, 9]: no G9.2-17-related effects | urinalysis parameters ([5]; either sex, any dose level, at the 13-week interim): No G9.2-17-related alterations | macroscopic observations ([5]; main study or recovery animals): no definitive test article-related macroscopic observations | organ weight changes ([5]; main study or recovery animals): no test article-related organ weight changes | tolerability ([5]; once weekly IV infusion of 100 and 300 mg/kg for 5-weeks): tolerated with no adverse findings | Functional Observational Battery ([5]; treatment or recovery periods): No test article-related FOB observations | blood pressure values ([5]; treatment or recovery periods): No test article-related effects | body weight and body weight gain ([5]; treatment or recovery periods): No test article-related effects | clinical and veterinary observations ([5]; treatment or recovery periods): No test article-related clinical or veterinary observations | electrocardiographic evaluations ([5]; treatment or recovery periods): No test article-related effects | ophthalmology examinations ([5]; treatment or recovery periods): No test article-related effects | respiratory rate values ([5]; treatment or recovery periods): No test article-related effects
